Screen size: about 280,000 compounds; about 100 (0.036%) were called active. Inconclusive results, whose numbers are uncertain, are shown with a selection of clear calls. Calls follow the shape of the dose curve; as a rule, active = well fitted inhibition curve with a large enough effect in the signal ratio, with a control signal flat (not every such curve was filed as active); inconclusive = small, poorly fitted or top-dose-only effect, or effect the other way, or a change in a side signal; inactive = no such curve, though single readings can be large or run the other way; the % refers to the signal ratio. Potencies of inconclusive entries are doubtful fits and often do not repeat. A note “side channel” means that the fit belongs to a control or component signal, not to the main read-out.
What follows are compounds tested against Muscleblind-like protein 1 (Homo sapiens) (UniProt Q9NR56) (assay: qHTS Assay for Inhibitors of MBNL1-poly(CUG) RNA binding). Settings: TR-FRET MBNL1-His/biotin-(CUG)12 binding, 665/545 ratio; series mostly up to 57.5 µM.
In short: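 MBNL1-His + Biotin-(CUG)12, cpd titration 92 nM–58 uM; Tb anti-His Ab 0.055 ng/ul, SA-XL665 5 nM (final); 60 min RT; ratiometric 665/545 nm, Ex 340 nm; normalized to buffer and full-complex controls.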
Potency is read from the fitted curve at half-maximal effect; tags tell the direction and shape of the fitted curve or compound fluorescence and quenching.

Sequence of UniProt Q9NR56 (Q9NR56 whole entry, looked up): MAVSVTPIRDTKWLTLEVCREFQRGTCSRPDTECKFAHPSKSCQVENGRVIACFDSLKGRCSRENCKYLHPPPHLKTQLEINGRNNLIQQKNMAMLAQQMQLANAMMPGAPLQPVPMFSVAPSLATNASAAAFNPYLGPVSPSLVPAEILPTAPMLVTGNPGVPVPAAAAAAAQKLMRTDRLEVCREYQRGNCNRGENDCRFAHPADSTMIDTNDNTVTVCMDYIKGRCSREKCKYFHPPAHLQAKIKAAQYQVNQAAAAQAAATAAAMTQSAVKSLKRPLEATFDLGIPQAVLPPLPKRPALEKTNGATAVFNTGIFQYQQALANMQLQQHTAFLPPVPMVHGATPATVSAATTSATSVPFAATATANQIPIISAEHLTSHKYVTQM

Structure (SMILES)	Potency
CC(=O)c1ccc(N2CCN(C(=O)C3CCCN3S(=O)(=O)c3cccc4nsnc34)CC2)cc1 (stereo unspecified)	inconclusive: 3.55 µM [quencher, full curve]
N#C/C(=N\Nc1ccc(F)cc1)C(=N)N1CCCCC1	inconclusive: 22.4 µM [quencher, side channel, single point]
COc1ccc(C(=O)c2ccc(CC#N)s2)cc1	inconclusive: 35.5 µM [quencher, side channel, partial curve, poor fit]
O=C(C[n+]1ccc(C(=O)N/N=C/c2ccc(OCc3ccccc3)cc2)cc1)c1ccccc1	inconclusive: 12.6 µM [quencher, partial curve]
COc1ccc(C(=O)COC(=O)/C=C/c2ccc(S(=O)(=O)Nc3cccc(S(N)(=O)=O)c3)cc2)cc1	inconclusive: 20 µM [quencher, side channel, partial curve]
S=C(Nc1ccccc1)Nc1ccc(OCc2ccccc2)cc1	inactive
Cc1cc(-c2ccc(Cl)cc2)n2nc(C)cc2n1	inconclusive: 28.2 µM [quencher, side channel, partial curve]
CC(=O)Nc1cc2nc(C)n(Cc3ccc([N+](=O)[O-])cc3)c2nc1C	inconclusive: 28.2 µM [quencher, side channel, partial curve]
O=C(Nc1nnc(SCc2ccc(F)cc2)s1)c1ccc2ncsc2c1	inconclusive: 0.794 µM [fluorescent, side channel, single point]
CCc1cccc(C)c1NC(=O)CCCSc1nc2ccccc2s1	inactive
O=C(CCC1CCCN(C(=O)C2=CCCC2)C1)N1CCN(c2ccccn2)CC1 (stereo unspecified)	inconclusive: 39.8 µM [quencher, side channel, partial curve]
O=C(c1cccn2c(=O)c3cc(Cl)ccc3nc12)N1CCN(Cc2ccc3c(c2)OCO3)CC1	inconclusive: 11.2 µM [quencher, side channel, partial curve]
O=C(Cn1ccc([N+](=O)[O-])n1)c1ccccc1	inconclusive: 22.4 µM [quencher, side channel, single point]
O=C(C1CC1)N1CCc2cc(Br)cc(S(=O)(=O)NC3CCCCC3)c21	inactive
COc1ccc(CNC(=O)c2cc3c(=O)n4ccccc4nc3n(CC3CCCO3)c2=N)cc1 (stereo unspecified)	inconclusive: 7.08 µM [quencher, side channel, partial curve]
N=c1c(C(=O)NCCc2ccccc2)cc2c(=O)n3ccccc3nc2n1CC1CCCO1 (stereo unspecified)	inconclusive: 6.31 µM [quencher, side channel, partial curve]

Reference: PubChem BioAssay AID2675 (National Center for Advancing Translational Sciences (NCATS), 2010)
